According to article PMC5492163:
These are yes or no findings as the source states them, for the method shown. In cells and extracts the contact can be indirect. Some results given as binding are weak or reduced against the parent protein; the word gives no strength.

Sequences of proteins named here, by UniProt entry; tags and fusion partners are left off. Residues count along the entry.
UniProt Q01097, residues 27-1482: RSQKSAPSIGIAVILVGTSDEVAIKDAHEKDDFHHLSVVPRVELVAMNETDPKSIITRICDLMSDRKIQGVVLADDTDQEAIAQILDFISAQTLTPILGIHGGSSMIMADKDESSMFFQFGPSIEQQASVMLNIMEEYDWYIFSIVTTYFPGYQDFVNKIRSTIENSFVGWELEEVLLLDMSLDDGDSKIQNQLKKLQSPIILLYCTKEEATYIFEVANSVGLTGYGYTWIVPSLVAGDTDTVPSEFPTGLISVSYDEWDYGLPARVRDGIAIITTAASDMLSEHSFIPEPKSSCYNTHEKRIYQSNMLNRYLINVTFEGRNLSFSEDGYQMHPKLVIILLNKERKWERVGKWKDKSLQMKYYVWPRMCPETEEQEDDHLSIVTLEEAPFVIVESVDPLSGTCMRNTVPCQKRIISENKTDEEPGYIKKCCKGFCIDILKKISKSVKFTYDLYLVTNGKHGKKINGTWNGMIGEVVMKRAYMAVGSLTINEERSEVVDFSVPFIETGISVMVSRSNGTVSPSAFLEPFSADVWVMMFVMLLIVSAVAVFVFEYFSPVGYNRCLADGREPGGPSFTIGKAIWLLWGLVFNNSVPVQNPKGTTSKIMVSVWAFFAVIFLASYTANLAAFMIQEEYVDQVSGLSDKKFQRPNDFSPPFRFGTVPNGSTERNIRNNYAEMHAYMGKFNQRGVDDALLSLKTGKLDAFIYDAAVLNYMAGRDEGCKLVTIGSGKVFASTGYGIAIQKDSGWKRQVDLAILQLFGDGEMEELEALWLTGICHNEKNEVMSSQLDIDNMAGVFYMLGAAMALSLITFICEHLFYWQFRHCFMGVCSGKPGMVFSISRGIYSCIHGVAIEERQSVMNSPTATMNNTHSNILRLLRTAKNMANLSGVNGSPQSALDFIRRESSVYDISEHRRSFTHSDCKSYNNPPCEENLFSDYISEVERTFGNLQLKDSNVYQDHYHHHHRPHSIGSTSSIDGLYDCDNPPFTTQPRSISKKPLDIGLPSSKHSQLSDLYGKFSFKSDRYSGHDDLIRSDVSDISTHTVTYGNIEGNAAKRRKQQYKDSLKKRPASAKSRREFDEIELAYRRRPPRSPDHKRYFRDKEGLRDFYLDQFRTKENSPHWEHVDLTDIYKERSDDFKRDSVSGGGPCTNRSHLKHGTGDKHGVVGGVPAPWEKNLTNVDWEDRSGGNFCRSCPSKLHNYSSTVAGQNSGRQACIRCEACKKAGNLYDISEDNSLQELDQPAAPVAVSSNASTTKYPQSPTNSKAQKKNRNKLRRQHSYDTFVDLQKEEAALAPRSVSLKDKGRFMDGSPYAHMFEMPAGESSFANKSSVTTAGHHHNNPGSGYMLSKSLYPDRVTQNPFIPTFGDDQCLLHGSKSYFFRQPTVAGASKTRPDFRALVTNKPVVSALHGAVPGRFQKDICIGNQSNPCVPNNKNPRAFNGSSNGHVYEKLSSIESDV
UniProt O88196: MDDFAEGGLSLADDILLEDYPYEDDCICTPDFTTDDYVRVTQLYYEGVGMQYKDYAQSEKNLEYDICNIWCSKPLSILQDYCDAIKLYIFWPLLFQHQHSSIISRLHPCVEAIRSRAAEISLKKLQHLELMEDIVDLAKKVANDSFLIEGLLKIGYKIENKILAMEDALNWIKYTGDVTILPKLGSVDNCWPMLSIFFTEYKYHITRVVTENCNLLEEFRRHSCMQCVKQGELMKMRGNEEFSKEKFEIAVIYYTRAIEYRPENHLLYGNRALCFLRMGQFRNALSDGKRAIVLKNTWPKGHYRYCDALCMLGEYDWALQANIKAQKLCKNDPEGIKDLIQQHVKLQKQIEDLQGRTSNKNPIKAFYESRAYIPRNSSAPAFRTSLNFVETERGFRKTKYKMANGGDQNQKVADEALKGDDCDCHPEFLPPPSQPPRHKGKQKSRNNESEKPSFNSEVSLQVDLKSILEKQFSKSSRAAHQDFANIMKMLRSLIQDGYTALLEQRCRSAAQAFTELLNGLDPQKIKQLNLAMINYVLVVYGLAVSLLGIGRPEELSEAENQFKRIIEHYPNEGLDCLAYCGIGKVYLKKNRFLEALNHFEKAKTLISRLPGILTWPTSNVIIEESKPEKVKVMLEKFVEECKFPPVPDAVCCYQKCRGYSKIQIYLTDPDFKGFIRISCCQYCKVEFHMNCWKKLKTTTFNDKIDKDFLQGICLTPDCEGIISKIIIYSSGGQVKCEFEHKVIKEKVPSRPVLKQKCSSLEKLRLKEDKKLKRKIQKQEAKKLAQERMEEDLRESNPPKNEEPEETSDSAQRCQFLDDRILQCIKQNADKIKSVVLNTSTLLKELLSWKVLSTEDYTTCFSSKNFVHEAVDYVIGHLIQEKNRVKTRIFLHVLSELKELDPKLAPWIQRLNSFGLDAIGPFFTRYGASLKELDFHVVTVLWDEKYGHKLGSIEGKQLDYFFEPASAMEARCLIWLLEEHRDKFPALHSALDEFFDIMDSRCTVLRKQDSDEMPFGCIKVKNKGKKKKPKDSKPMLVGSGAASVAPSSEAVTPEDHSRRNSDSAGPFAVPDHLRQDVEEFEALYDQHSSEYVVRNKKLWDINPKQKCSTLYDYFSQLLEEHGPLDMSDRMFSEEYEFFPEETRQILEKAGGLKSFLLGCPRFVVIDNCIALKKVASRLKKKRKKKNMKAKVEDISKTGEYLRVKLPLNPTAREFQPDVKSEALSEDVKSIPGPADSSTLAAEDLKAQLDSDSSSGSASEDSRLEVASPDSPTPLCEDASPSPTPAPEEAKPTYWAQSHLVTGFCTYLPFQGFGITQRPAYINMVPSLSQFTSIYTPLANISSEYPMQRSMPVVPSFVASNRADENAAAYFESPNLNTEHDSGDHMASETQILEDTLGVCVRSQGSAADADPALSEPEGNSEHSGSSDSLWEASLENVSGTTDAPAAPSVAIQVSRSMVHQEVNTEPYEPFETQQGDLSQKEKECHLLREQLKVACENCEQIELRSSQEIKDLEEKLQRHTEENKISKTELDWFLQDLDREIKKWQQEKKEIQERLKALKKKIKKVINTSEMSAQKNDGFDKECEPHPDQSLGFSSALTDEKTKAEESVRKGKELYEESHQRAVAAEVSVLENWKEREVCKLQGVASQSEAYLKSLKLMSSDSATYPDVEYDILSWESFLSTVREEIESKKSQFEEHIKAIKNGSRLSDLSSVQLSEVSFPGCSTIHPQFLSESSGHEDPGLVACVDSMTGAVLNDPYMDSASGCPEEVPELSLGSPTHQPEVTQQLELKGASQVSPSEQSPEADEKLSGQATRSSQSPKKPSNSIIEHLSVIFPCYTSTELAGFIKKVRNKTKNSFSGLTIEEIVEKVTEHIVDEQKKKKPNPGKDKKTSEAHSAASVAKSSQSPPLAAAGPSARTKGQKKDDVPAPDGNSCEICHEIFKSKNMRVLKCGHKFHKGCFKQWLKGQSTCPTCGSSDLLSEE
UniProt Q4ACU6: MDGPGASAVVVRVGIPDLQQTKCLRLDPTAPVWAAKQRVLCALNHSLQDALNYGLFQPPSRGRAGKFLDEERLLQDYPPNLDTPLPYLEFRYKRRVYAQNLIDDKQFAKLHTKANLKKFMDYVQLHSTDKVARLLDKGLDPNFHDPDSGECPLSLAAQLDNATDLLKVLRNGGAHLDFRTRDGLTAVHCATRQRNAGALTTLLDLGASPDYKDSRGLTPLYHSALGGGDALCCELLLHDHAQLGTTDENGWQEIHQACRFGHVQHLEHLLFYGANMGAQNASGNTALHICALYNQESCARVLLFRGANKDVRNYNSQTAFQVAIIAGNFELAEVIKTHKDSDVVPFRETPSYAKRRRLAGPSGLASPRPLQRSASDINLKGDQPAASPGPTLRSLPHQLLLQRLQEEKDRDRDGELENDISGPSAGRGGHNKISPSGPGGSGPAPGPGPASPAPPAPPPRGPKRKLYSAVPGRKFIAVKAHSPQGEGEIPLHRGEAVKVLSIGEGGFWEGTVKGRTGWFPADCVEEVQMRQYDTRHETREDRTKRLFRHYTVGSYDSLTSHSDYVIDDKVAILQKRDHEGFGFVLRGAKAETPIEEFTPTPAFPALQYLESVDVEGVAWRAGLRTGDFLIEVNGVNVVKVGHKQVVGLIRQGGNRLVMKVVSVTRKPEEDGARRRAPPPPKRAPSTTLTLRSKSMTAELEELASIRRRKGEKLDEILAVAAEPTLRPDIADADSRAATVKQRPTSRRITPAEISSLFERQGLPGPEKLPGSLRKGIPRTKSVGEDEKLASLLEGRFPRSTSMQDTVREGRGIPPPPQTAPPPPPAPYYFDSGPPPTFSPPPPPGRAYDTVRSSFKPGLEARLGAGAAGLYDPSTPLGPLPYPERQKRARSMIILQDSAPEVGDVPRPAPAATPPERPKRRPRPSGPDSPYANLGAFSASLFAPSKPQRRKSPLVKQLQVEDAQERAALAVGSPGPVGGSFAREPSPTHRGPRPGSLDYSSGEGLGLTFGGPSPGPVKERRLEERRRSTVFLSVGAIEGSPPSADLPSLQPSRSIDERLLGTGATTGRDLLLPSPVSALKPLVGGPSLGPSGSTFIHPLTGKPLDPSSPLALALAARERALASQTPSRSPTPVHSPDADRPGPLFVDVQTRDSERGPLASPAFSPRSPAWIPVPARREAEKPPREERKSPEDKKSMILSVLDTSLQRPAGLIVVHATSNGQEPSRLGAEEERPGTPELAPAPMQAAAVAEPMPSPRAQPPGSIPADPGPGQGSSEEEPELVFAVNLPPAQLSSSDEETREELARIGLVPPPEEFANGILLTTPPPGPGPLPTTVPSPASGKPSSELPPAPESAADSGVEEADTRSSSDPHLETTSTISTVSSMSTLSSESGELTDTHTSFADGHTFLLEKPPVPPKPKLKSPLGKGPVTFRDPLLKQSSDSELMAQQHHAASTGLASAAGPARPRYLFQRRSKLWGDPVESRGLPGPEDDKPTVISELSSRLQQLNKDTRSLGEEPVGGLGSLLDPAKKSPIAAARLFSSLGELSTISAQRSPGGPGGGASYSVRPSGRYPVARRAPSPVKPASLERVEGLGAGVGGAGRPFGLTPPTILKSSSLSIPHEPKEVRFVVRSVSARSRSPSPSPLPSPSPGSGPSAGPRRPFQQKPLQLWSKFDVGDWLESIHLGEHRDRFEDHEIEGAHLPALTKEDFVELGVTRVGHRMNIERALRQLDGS
UniProt P11798: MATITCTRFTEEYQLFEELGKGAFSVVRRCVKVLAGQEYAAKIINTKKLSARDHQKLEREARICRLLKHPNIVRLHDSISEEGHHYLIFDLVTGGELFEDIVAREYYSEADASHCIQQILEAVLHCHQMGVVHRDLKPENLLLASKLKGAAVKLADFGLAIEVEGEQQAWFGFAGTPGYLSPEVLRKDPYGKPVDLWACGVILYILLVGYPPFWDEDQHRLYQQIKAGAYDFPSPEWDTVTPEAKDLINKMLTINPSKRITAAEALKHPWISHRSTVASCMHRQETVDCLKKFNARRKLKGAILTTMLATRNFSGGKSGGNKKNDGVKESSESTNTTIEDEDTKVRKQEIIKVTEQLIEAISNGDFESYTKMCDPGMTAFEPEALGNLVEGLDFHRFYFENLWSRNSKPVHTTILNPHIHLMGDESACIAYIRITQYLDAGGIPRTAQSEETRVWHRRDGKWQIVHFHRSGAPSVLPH

T1: p140Cap (mouse (endogenous in synaptosomes of the telencephalon)) (UniProt Q9QWI6)
T1 sequence: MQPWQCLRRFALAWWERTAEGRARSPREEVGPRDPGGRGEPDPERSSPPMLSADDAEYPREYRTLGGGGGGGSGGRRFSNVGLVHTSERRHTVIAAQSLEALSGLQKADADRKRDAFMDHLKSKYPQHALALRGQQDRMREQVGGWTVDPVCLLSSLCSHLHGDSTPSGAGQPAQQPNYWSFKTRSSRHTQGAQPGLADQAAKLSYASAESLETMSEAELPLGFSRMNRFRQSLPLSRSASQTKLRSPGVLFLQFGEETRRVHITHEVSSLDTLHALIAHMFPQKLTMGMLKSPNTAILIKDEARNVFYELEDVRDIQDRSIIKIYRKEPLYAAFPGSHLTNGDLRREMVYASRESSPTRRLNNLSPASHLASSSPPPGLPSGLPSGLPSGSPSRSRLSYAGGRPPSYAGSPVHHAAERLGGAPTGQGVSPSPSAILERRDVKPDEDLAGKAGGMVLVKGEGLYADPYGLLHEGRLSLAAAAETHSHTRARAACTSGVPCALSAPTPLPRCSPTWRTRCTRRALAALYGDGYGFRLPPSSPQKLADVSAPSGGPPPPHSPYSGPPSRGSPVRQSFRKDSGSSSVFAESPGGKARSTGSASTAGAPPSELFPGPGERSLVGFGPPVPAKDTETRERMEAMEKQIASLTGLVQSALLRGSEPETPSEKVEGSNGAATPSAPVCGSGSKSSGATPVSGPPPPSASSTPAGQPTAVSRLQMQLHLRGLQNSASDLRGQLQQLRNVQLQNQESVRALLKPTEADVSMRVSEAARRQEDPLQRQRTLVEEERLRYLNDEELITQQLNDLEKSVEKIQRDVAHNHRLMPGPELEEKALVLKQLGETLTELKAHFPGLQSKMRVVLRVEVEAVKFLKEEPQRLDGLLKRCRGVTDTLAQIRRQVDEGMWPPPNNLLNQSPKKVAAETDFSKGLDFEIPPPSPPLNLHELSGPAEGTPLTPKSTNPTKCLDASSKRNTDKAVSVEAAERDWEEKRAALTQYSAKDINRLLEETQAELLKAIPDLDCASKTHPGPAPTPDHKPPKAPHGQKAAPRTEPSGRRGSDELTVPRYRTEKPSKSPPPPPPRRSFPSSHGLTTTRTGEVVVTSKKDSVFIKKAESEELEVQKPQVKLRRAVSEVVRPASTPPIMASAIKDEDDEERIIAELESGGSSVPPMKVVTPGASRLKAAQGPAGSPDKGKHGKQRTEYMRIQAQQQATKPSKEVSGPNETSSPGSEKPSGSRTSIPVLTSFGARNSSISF

B1: Cadm1/Syncam (protein, UniProt Q8R5M8 48-456)
chain: QNLFTKDVTVIEGEVATISCQVNKSDDSVIQLLNPNRQTIYFRDFRPLKDSRFQLLNFSSSELKVSLTNVSISDEGRYFCQLYTDPPQESYTTITVLVPPRNLMIDIQKDTAVEGEEIEVNCTAMASKPATTIRWFKGNKELKGKSEVEEWSDMYTVTSQLMLKVHKEDDGVPVICQVEHPAVTGNLQTQRYLEVQYKPQVHIQMTYPLQGLTREGDAFELTCEAIGKPQPVMVTWVRVDDEMPQHAVLSGPNLFINNLNKTDNGTYRCEASNIVGKAHSDYMLYVYDPPTTIPPPTTTTTTTTTTTTTILTIITDTTATTEPAVHDSRAGEEGTIGAVDHAVIGGVVAVVVFAMLCLLIILGRYFARHKGTYFTHEAKGADDAADADTAIINAEGGQNNSEEKKEYFI
B2: p140Cap (protein, UniProt Q9QWI6 1-1250)
chain: T1 sequence
B3: Shank2 (protein, UniProt Q80Z38 1-1476)
chain: MKSLLNAFTKKEVPFREAPAYSNRRRRPPNTLAAPRVLLRSNSDNNLNAGAPEWAVCSAATSHRSLSPQLLQQTPSKPDGATKSLGSYTPGPRSRSPSLNRLGGTAEDGKRTQPHWHVGSPFTPGANKDSLSTFEYPGPRRKLYSAVPGRLFVAVKPYQPQVDGEIPLHRGDRVKVLSIGEGGFWEGSARGHIGWFPAECVEEVQCKPRDSQAETRADRSKKLFRHYTVGSYDSFDAASDCIIEDKTVVLQKKDNEGFGFVLRGAKADTPIEEFTPTPAFPALQYLESVDEGGVAWQAGLRTGDFLIEVNNENVVKVGHRQVVNMIRQGGNHLILKVVTVTRNLDPDDTARKKAPPPPKRAPTTALTLRSKSMTAELEELGLSLVDKASVRKKKDKPEEIVPASKPSRTAENVAIESRVATIKQRPTSRCFPAASDVNSVYERQGIAVMTPTVPGSPKGPFLGLPRGTMRRQKSIDSRIFLSGITEEERQFLAPPMLKFTRSLSMPDTSEDIPPPPQSVPPSPPPPSPTTYNCPRSPTPRVYGTIKPAFNQNPVVAKVPPATRSDTVATMMREKGMFYRRELDRFSLDSEDVYSRSPAPQAAFRTKRGQMPENPYSEVGKIASKAVYVPAKPARRKGVLVKQSNVEDSPEKTCSIPIPTIIVKEPSTSSSGKSSQGSSMEIDPQATEPGQLRPDDSLTVSSPFAAAIAGAVRDREKRLEARRNSPAFLSTDLGDEDVGLGPPAPRMQASKFPEEGGFGDEDETEQPLLPTPGAAPRELENHFLGGGEAGAQGEAGGPLSSTSKAKGPESGPAAPLKSSSPAGPENYVHPLTGRLLDPSSPLALALSARDRAMQESQQGHKGEAPKADLNKPLYIDTKMRPSVESGFPPVTRQNTRGPLRRQETENKYETDLGKDRRADDKKNMLINIVDTAQQKSAGLLMVHTVDVPMAGPPLEEEEDREDGDTKPDHSPSTVPEGVPKTEGALQISAAPEPAVAPGRTIVAAGSVEEAVILPFRIPPPPLASVDLDEDFLFTEPLPPPLEFANSFDIPDDRAASVPALADLVKQKKNDTSQPPTLNSSQPANSTDSKKPAGISNCLPSSFLPPPESFDAVTDSGIEEVDSRSSSDHHLETTSTISTVSSISTLSSEGGESMDTCTVYADGQAFVVDKPPVPPKPKMKPIVHKSNALYQDTLPEEDTDGFVIPPPAPPPPPGSAQAGVAKVIQPRTSKLWGDVPEVKSPILSGPKANVISELNSILQQMNRGKSVKPGEGLELPVGAKSANLAPRSPEVMSTVSGTRSTTVTFTVRPGTSQPITLQSRPPDYESRTSGPRRAPSPVVSPTELSKEILPTPPPPSATAASPSPTLSDVFSLPSQSPAGDLFGLNPAGRSRSPSPSILQQPISNKPFTTKPVHLWTKPDVADWLESLNLGEHKETFMDNEIDGSHLPNLQKEDLIDLGVTRVGHRMNIERALKQLLDR
B4: Homer1 (protein, UniProt Q9Z2Y3 1-366)
chain: MGEQPIFSTRAHVFQIDPNTKKNWVPTSKHAVTVSYFYDSTRNVYRIISLDGSKAIINSTITPNMTFTKTSQKFGQWADSRANTVYGLGFSSEHHLSKFAEKFQEFKEAARLAKEKSQEKMELTSTPSQESAGGDLQSPLTPESINGTDDERTPDVTQNSEPRAEPTQNALPFPHSAGDRTQALSHASSAISKHWEAELATLKGNNAKLTAALLESTANVKQWKQQLAAYQEEAERLHKRVTELECVSSQANAVHSHKTELNQTVQELEETLKVKEEEIERLKQEIDNARELQEQRDSLTQKLQEVEIRNKDLEGQLSDLEQRLEKSQNEQEAFRSNLKTLLEILDGKIFELTELRDNLAKLLECS

Key:
[1] = target: T1, p140Cap (mouse (endogenous in synaptosomes of the telencephalon)); assay: co-IP; p140Cap immunoprecipitated with Mab 2A8 on Dynabeads from crude synaptosomal extracts of WT and p140Cap KO mice; Western blot of the partners
[2] = target: Grin2a (mouse (endogenous in synaptosomes of the telencephalon)) (UniProt P35436); assay: co-IP; reverse: Dlg4/PSD95 or Grin2a/NR2A immunoprecipitated from synaptosomes of WT and p140Cap KO mice, control IP with IgGs; Western blot for p140Cap

Molecule	binding [1]	binding [2]
Grin2b (from UniProt Q01097 27-1482) (receptor)	binds	–
Ttc3 (from UniProt O88196 1-1979)	no binding	–
Shank3 (from UniProt Q4ACU6 1-1730)	binds	–
Citron-N (from UniProt P49025-3 1-1597)	binds	–
Camk2a (from UniProt P11798 1-478) (enzyme)	binds	–
Grin2a (from UniProt P35436 23-1464) (receptor)	binds	–
B1	binds	–
B2	–	binds
B3	binds	–
B4	binds	–
